Source: paper PMC9911399
The list shows a part of the results.

Target: T1, RBFOX1 RRM (Homo sapiens) (UniProt Q9NWB1)
T1 sequence: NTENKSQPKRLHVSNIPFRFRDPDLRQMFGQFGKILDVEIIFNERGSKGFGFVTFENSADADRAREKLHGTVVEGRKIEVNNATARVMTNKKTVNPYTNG
Test: EMSA
Conditions: HiTS-Eq, 1 nM pool, 10 min; buffer printed only for the single-RNA assays: 10 mM Tris pH 7.5, 150 mM NaCl, 3.4 mM EDTA, 0.001% NP-40, 30 C

Sequence | binding signal (KA relative to UGCAUGU)
GGGAGACCGGAAUUCAGAUUGUCCGGUCCUCUUAAAUCCCGUCGUAGCCACCA / CAATCTGAATTCCGGTCTCCC / TGGTGGCTACGACGGGATT | 0.0341
GGGAGACCGGAAUUCAGAUUGUCCCCCCGCCUUAAAUCCCGUCGUAGCCACCA / CAATCTGAATTCCGGTCTCCC / TGGTGGCTACGACGGGATT | 0.004
GGGAGACCGGAAUUCAGAUUGUCCCCAACCCUUAAAUCCCGUCGUAGCCACCA / CAATCTGAATTCCGGTCTCCC / TGGTGGCTACGACGGGATT | 0.00259
GGGAGACCGGAAUUCAGAUUGUCCUCCCACCUUAAAUCCCGUCGUAGCCACCA / CAATCTGAATTCCGGTCTCCC / TGGTGGCTACGACGGGATT | 0.00425
GGGAGACCGGAAUUCAGAUUGUCCUCCCGCCUUAAAUCCCGUCGUAGCCACCA / CAATCTGAATTCCGGTCTCCC / TGGTGGCTACGACGGGATT | 0.011
